{"source": "the supplement of paper PMC6531468", "note": "This is one part of the list. These are enrichments in a pooled selection; single values are uncertain. Scores sum up all selected molecules that hold the word; the word was not tested alone."}
{"test_system": "IMP3 RRM1-2", "sequence (chain, as listed by the source)": "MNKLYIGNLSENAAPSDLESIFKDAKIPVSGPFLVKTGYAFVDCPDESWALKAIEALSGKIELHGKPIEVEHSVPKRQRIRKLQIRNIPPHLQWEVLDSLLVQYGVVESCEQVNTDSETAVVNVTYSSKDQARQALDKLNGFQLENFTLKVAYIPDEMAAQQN", "test": "6-mer SELEX enrichment z-score vs GST control; IMP3 is the RNA-binding protein IGF2BP3; higher = more enriched by binding", "conditions": "construct: RRM1-2 (1-163); SELEX round: R2", "experimental": "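SELEX-seq with GST-tagged IMP3 RRM1-2 (Met1-Asn163) and an N40 RNA pool, round 2. 6-mer enrichment z-score normalised to GST SELEX. RNA written as DNA (T = U).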"}
{"sequence": "TTGCGA", "6-mer SELEX enrichment z-score": -0.122}
{"sequence": "AAACTT", "6-mer SELEX enrichment z-score": -0.702}
{"sequence": "ACCATC", "6-mer SELEX enrichment z-score": 1.33}
{"sequence": "GGTAAT", "6-mer SELEX enrichment z-score": 0.096}
{"sequence": "GCTAGC", "6-mer SELEX enrichment z-score": 0.148}
{"sequence": "TGCGCC", "6-mer SELEX enrichment z-score": -0.239}
{"sequence": "TGCGTA", "6-mer SELEX enrichment z-score": 0.035}
{"sequence": "GTTAAC", "6-mer SELEX enrichment z-score": -0.124}
{"sequence": "CGACTA", "6-mer SELEX enrichment z-score": -0.3}
{"sequence": "CACGCG", "6-mer SELEX enrichment z-score": 0.266}
{"sequence": "ACTAAG", "6-mer SELEX enrichment z-score": 0.034}
{"sequence": "GCAGTT", "6-mer SELEX enrichment z-score": 0.335}
{"sequence": "TAATCC", "6-mer SELEX enrichment z-score": -0.483}
{"sequence": "CGATCT", "6-mer SELEX enrichment z-score": -0.05}
{"sequence": "ATTGTT", "6-mer SELEX enrichment z-score": 0.348}
{"sequence": "GCTCCG", "6-mer SELEX enrichment z-score": -0.083}
{"sequence": "GATCCC", "6-mer SELEX enrichment z-score": -0.691}
{"sequence": "ATGTTA", "6-mer SELEX enrichment z-score": 0.072}
{"sequence": "CCGTGA", "6-mer SELEX enrichment z-score": -0.872}
{"sequence": "CGCGTC", "6-mer SELEX enrichment z-score": 0.406}
{"sequence": "GTATAA", "6-mer SELEX enrichment z-score": -0.346}
{"sequence": "ATGAAC", "6-mer SELEX enrichment z-score": -0.951}
{"sequence": "CGATAT", "6-mer SELEX enrichment z-score": -0.306}
{"sequence": "ATTGTC", "6-mer SELEX enrichment z-score": 0.233}
{"sequence": "ATAAGC", "6-mer SELEX enrichment z-score": -0.36}
{"sequence": "CCATGT", "6-mer SELEX enrichment z-score": 0.033}
{"sequence": "GATAGT", "6-mer SELEX enrichment z-score": -0.111}
{"sequence": "CACCTT", "6-mer SELEX enrichment z-score": 0.152}
{"sequence": "GGGACG", "6-mer SELEX enrichment z-score": -0.398}
{"sequence": "CATGCA", "6-mer SELEX enrichment z-score": 1.49}
{"sequence": "CGGATG", "6-mer SELEX enrichment z-score": -0.404}
{"sequence": "ATCCAC", "6-mer SELEX enrichment z-score": 0.396}
{"sequence": "GCAGCG", "6-mer SELEX enrichment z-score": 0.132}
{"sequence": "AGGGGT", "6-mer SELEX enrichment z-score": 0.335}
{"sequence": "ACCCGC", "6-mer SELEX enrichment z-score": -0.407}
{"sequence": "TAGCCC", "6-mer SELEX enrichment z-score": -0.449}
{"sequence": "AGAGGG", "6-mer SELEX enrichment z-score": -0.353}
{"sequence": "TTGTAA", "6-mer SELEX enrichment z-score": -0.147}
{"sequence": "TCGAGA", "6-mer SELEX enrichment z-score": -0.215}
{"sequence": "CCCCAT", "6-mer SELEX enrichment z-score": -0.218}
